Test results as given in ChEMBL document CHEMBL4888484, “Replenishing the malaria drug discovery pipeline: Screening and hit evaluation of the MMV Hit Generation Library 1 (HGL1) against asexual blood stage Plasmodium falciparum ,using a nano luciferase reporter read-out” (2022).
Hit rate of the full screen: of about 150,000 compounds, about 540 (0.36%) showed an effect of 50% or more. The list shows a part of the results.

tested on: Plasmodium falciparum; assay: Primary screen in NF54 nanoGlo assay, in single point, at 2uM, 72h; a lower Z score goes with more inhibition; format: functional, Erythrocyte; conditions: timepoint 72 hour

| Compound | % Inhibition [%] | Z score |
| --- | --- | --- |
| Cc1cccc(C[C@H](C)N2CCC(CCC(=O)N3CCOCC3)CC2)n1 | -8 | 0.72 |
| CN(C)c1ccnc(NC(=O)N2CCCC2CC(O)c2ccco2)n1 (stereo not given) | -4 | 0.52 |
| CCN1CC(C)N(C(=O)c2sccc2C)CC1C (stereo not given) | 1 | -0.1 |
| COC(=O)C1CN(C(C)c2ncc(C(C)(C)C)o2)C[C@@H](C)O1 (stereo not given in full) | -7 | 0.99 |
| COCCn1cncc1CN1C(=O)OC[C@@H]1c1ccccc1 | -13 | 2.49 |
| COCc1nsc(N2CCN(c3ccc(O)cc3)CC2)n1 | -32 | 3.8 |
| Cc1nsc2c1[C@@H](c1nc(C(C)C)cs1)CC(=O)N2 | -7 | 1.12 |
| Cn1cc(CN(C(=O)Nc2cccnc2)C2CC2)cn1 | 1 | -0.15 |
| NC(=O)c1c(NC2=NS(=O)(=O)c3ccccc32)sc2c1CCCC2 | -1 | 0.07 |
| CCC(C)NC(=O)CC(c1cccc2c1OCO2)c1c[nH]c2ccccc12 (stereo not given) | 7 | -1.09 |
| Cc1noc(C)c1S(=O)(=O)NCc1ccc(N(C)C)nc1 | -12 | 1.11 |
| Cc1cccc(CNC(=O)Nc2nc(-c3ccccc3)no2)n1 | -7 | 1.15 |
| Cc1cc(-c2cc(S(=O)(=O)N3CCCCC3)c(C)s2)on1 | -13 | 1.26 |
| COc1ccc(S(=O)(=O)Oc2ccccc2CN(Cc2ccc(F)cc2)C(=O)C(C)C)cc1 | -8 | 1.12 |
| CCN1CCN(C(=O)CN(C)C(=O)c2csc(Nc3cccc(Cl)c3Cl)n2)CC1 | -14 | 1.37 |
| N#CC1CCN(C(=O)C[C@H]2CCCO2)CC1 | 5 | -0.68 |
| Cc1ccc(C)c(Cn2ccnc2CN(CCN2CCOCC2)C(=O)CC(C)C)c1 | -13 | 1.36 |
| Cc1ccccc1NS(=O)(=O)c1cc2n(c1)CCN(C)C2=O | -8 | 1.2 |
| Cc1ccc(NC(=O)COc2cc(C)c(C)nn2)c(Cl)c1 | -8 | 1.49 |
| Fc1ccc([C@@]2(c3noc(CCc4nc5ccccc5[nH]4)n3)CCOC2)cc1 | 3 | -0.55 |
| CC(C)CN1CC2(CCN(C(=O)[C@H]3CCc4nn(C)c(=O)n4C3)CC2)CC1=O | -1 | 0.18 |
| COc1c(C)cc(C)cc1-c1nc2c(cnn2C2CCN(C)CC2)[nH]1 | 2 | -0.35 |

| Compound | % Inhibition [%] | Z score |
| --- | --- | --- |
| CC[C@@H](CO)N1CCN(C2CCC(C(=O)OC(C)(C)C)CC2)CC1 (stereo not given in full) | -8 | 1.57 |
| COc1ccccc1C1CC1c1nc(C2CC2)no1 (stereo not given) | -4 | 0.37 |
| Cc1ccc(NS(=O)(=O)c2cc(-c3[nH]nc(C)c3C)sc2C)c(C)c1 | -14 | 1.66 |
| C[C@@H](Cn1cc(Br)cn1)Nc1ccc2c(c1)COC2 | 3 | -0.36 |
| Cc1nnc(CNC(C2CCCC2)C2CCCC2)o1 | -13 | 1.32 |
| CN1CCN(C(=O)N2CCC3(CCC(=O)N(CCc4ccncc4)C3)CC2)CC1 | -14 | 1.57 |
| Cc1ccc(OCC(=O)NC2CCC(Oc3cnccn3)CC2)c(C)c1 (stereo not given) | -3 | 0.46 |
| CNC(=O)c1n[nH]c2c1[C@@H](Cc1ccccc1)CC(=O)N2 | -9 | 1.17 |
| CC(=O)Nc1ccc(-c2cn([C@H](c3cccnc3)C(C)C)nn2)cc1 | -1 | 0.13 |
| CC(=O)N1CCCN(C(=O)[C@@H]2COc3ccccc32)CC1 | -10 | 0.98 |
| O=C(N[C@@H](N1CCCCCC1)C(Cl)(Cl)Cl)c1ccccc1Cl | -3 | 0.4 |
| CC(=O)Nc1c(C)nc(N2CCN(C)CC2)nc1C | 2 | -0.26 |
| O=C1CCc2cc(S(=O)(=O)CCC(=O)N3CC[C@H](CCOc4ccccc4F)C3)ccc2N1 | -7 | 1.27 |
| CC(C)c1ccc(N2CCN(C(=O)c3ccc(C(F)(F)F)cc3)[C@@H](C)C2=O)cc1 | 33 | -4.48 |
| COCCC[C@H]1CCCCN1S(=O)(=O)c1cccc(C(=O)N2CCC2)c1 | 1 | -0.17 |
| Cc1cc(C)n(C)c(=O)c1C(=O)NC[C@H]1CCCO1 | -13 | 1.46 |
| COC1CCN(CC(=O)N2CCCCCC2)CC1 | -13 | 1.31 |
| CC(C)c1nncn1CCNC(=O)C(C)(C)N1CCOCC1 | -2 | 0.29 |
| CC(=O)Nc1cccc(C(=O)N2CCC[C@H]2c2ccncc2)c1 | 11 | -1.24 |
| O=C(Nc1ccc2oc(-c3cncc(Br)c3)nc2c1)c1ccc2c(c1)OCO2 | -13 | 1.96 |
| CC(C)(C(=O)Nc1cc(C(F)(F)F)c[nH]c1=O)S(=O)(=O)C1CC1 | -5 | 0.89 |
| Cc1cccc(-c2ccc(C(=O)O)n2C)c1 | -10 | 1.46 |

| Compound | % Inhibition [%] | Z score |
| --- | --- | --- |
| Cc1n[nH]c(C)c1CCN1CCCN(c2nc3ccccc3s2)CC1 | 0 | -0.03 |
| Cc1cccc(-n2nnnc2C2(Nc3ccc4c(c3)OCO4)CCCC2)c1 | -4 | 0.75 |
| CC(C)C[C@H]1CCCCCN1C(=O)c1[nH]c(=O)[nH]c(=O)c1N | 8 | -1.2 |
| Cc1cnc(C(=O)N2CCC[C@H]2Cn2nc(C)nc2C)c(C)c1 | 6 | -1.1 |
| CC[C@](C)(NCCN1C(=O)NC(C)(C)C1=O)c1nccs1 | -4 | 0.42 |
| c1cc2[nH]ncc2cc1NC1CC2CCC(C1)O2 (stereo not given) | -15 | 2.28 |
| COC(=O)NCCn1nc(C(F)(F)F)c2c1CCOC2 | 27 | -3.4 |
| COc1cccc(C(=O)[N-]c2c[n+](-c3ccc(C)cc3)no2)c1 | 1 | -0.07 |
| CC(=O)N1C(=O)N(c2ccccc2)C2C1N(c1ccccc1)C(=O)N2C(C)=O (stereo not given) | -8 | 1.2 |
| CCNC(=NCc1ccc(OC)c(Cl)c1)NCC | 4 | -0.37 |
| Cc1nc2c(c(=O)[nH]1)NC(=O)[C@H](CC(C)C)N2 | 38 | -4.9 |
| O=C(O)CN(C(=O)C1CC1c1ccccc1OC(F)(F)F)C1CCOCC1 (stereo not given) | -5 | 0.76 |
| CCN(C(=O)Cc1c(C(=O)O)c(C)cn1C)c1cccc(Cl)c1 | 0 | -0.02 |
| OC[C@@H](Cc1cccs1)Cn1ccnc1-c1cc(F)ccc1F | -2 | 0.41 |
| C[C@@H]1CCC[C@H](C)N1C(=O)CCOCC(F)(F)C(F)F | -8 | 0.89 |
| CCN(Cc1ccc2ccccc2n1)C(=O)CCC1CCC(C)O1 (stereo not given) | -17 | 1.61 |
| COc1cn(CC(=O)NC2CCCCC2)c(CO)cc1=O | 32 | -3.65 |
| CCCCN(CC(=O)N1c2ccccc2-n2cccc2[C@H]1c1ccc(Cl)cc1)C(=O)Nc1cccc(C#N)c1 | 3 | -0.5 |
| Cc1noc(-c2ccsc2NC(=O)c2cnoc2C)n1 | -6 | 1.22 |
| NC(=O)c1cc(S(=O)(=O)N2CCC(N3CCCCC3)CC2)cs1 | -9 | 0.84 |
| CCCCC(=O)NCc1nnc(C(=O)Nc2ccc3c(c2)OCO3)s1 | 15 | -1.7 |
| CCN1CCC(NC2CCOCC2)C1c1cc(F)c(F)c(F)c1 (stereo not given) | -1 | 0.22 |

| Compound | % Inhibition [%] | Z score |
| --- | --- | --- |
| O=S1(=O)C[C@H](O)[C@@H](N(CCO)Cc2cncn2Cc2ccccc2)C1 | -1 | 0.06 |
| Cc1ccccc1CN1CC[C@H](CNC(=O)CCc2c(C)nn(C)c2C)C1 | -4 | 0.65 |
| O=C(NCc1cc(-c2ccccn2)no1)[C@H](O)C1CCCCC1 | -3 | 0.48 |
| CCS(=O)(=O)N1CCC(C(=O)N2N=C(C)C[C@]2(O)C(F)F)CC1 | 2 | -0.31 |
| CN1CCOc2cc(C(=O)N(C)[C@H]3CS(=O)(=O)C[C@@H]3O)ccc21 | 0 | -0.01 |
| CC[C@@](C)(C#N)NC(=O)Cc1csc(-c2ccoc2)n1 | -3 | 0.37 |
| CC(C)N1CCC(NC(=O)[C@H]2CC(=O)N(c3cccc(Br)c3)C2)CC1 | 8 | -1.15 |
| Cc1c(CNC2CCC(C)CC2)c(C(=O)O)c(C)n1Cc1ccc(F)cc1Cl (stereo not given) | -18 | 3.39 |
| C[C@H](Nc1cccc(OCCF)c1)c1ccc(F)cn1 | 9 | -1.64 |
| CCC(=O)N1CC[C@H](Cn2c(C)cnc2C2CCC2)C1 | 5 | -0.64 |
| Cc1nonc1CC(=O)N[C@H]1CN(C(=O)c2ccc(Cl)cc2)C[C@@H]1C1CC1 | -10 | 1.27 |
| Cc1ccnc(NCC(CO)C2CCOC2)c1 (stereo not given) | 5 | -0.7 |
| COc1ccc(-c2ncc(CN3CCC[C@H](C(=O)c4ccc(Cl)cc4)C3)cn2)cc1 | -6 | 0.8 |
| COc1cccnc1CNC(=O)c1cc(COC(C)(C)C)on1 | -12 | 2.11 |
| Cc1cc(S(=O)(=O)N(C)c2cnn(C)c2)sc1Cl | -12 | 1.06 |
| CCN(CC)C(=O)C1CCCN1C(=O)NC(C)c1csc(C)n1 (stereo not given) | 4 | -0.55 |
| CCc1c(C(C)(C)C)noc1NC(=O)COC[C@H]1CCCO1 | 2 | -0.35 |
| O=C(O)c1cc(-c2ccc(C3CCCCC3)cc2)nc2ccccc12 | 9 | -1.14 |
| COc1ccc(CNC(=O)C2CCN(c3nccn4nc(-c5ccccc5)cc34)CC2)cc1OC | -4 | 0.41 |
